The supplement of paper PMC10037445
± gives the standard deviation of the averaged measurements. Whole data set: some 2,900 compounds, median “NF-kB SEAP reporter activity, fold change vs agonist alone” near 0.99, cut for the highest 2% near 2.6. The list shows a part of the results.

How the values were obtained:
[1] = system: RAW-Dual; test: NF-kB SEAP reporter activity, fold change vs agonist alone; higher = enhanced NF-kB activity
Outline: (§1)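 Cytotoxic wells were those whose IncuCyte confluency was below 70% of agonist controls in both mask sets. The cells were RAW-Dual macrophages at 50,000 cells/well in DMEM on 384-well plates, dosed with 50 nL of library stock by pin tool, stimulated with a PRR agonist 1 h later, and kept at 37 °C, 5% CO2 for 20 hours. IRF and NF-κB reporter activity, as fold change over agonist-alone wells, came from supernatant read by QuantiLuc luminescence and QuantiBlue absorbance, respectively.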

[2] = system: RAW-Dual; test: NF-kB SEAP reporter activity, fold change vs agonist alone; cytotoxicity flag (confluency mask): not cytotoxic; higher = enhanced NF-kB activity
Outline: as §1

[3] = system: RAW-Dual; test: NF-kB SEAP reporter activity, fold change vs agonist alone; cytotoxicity flag (confluency mask): cytotoxic (confluency <70% of control); higher = enhanced NF-kB activity
Outline: as §1

[4] = library stock concentration (final ~1000-fold dilution): 10 mM, cytotoxicity flag (confluency mask): not cytotoxic, agonist: Imiquimod (TLR7) […]
[5] = library stock concentration (final ~1000-fold dilution): 10 mM, cytotoxicity flag (confluency mask): not cytotoxic, agonist: MPLA (TLR4) […]
[6] = agonist: ODN 1826 (TLR9) 0.5 ug/mL
[7] = agonist: Pam2CSK4 (TLR2/6) 0.1 ug/mL
[8] = agonist: Pam3CSK4 (TLR2/1) 0.1 ug/mL

## COC(C)Cn1c(=O)n(C)c2cnc3ccc(-c4cncc(C(C)(C)O)c4)cc3c21 (stereo unspecified)
[1]; [4]
  NF-kB SEAP reporter activity: 0.865
[1]; [5]
  NF-kB SEAP reporter activity: 1.85

## COC(C)Cn1c(=O)n(C)c2cnc3ccc(-c4cncc(C(C)(C)O)c4)cc3c21 (stereo unspecified) (library stock concentration (final ~1000-fold dilution): 10 mM)
[2]; agonist: LPS (TLR4) 0.1 ug/mL
  NF-kB SEAP reporter activity: 1.84
[2]; [6]
  NF-kB SEAP reporter activity: 1.26
[2]; [7]
  NF-kB SEAP reporter activity: 0.476
[2]; [8]
  NF-kB SEAP reporter activity: 1.03

## CO[C@H](c1c(NC(=O)Nc2cnc(-n3nccn3)c(Cl)c2)cnc2cc(Cl)nn12)[C@@H](C)OC (library stock concentration (final ~1000-fold dilution): 10 mM)
[2]; agonist: LPS (TLR4) 0.1 ug/mL
  NF-kB SEAP reporter activity: 1.37
[2]; [6]
  NF-kB SEAP reporter activity: 0.862
[2]; [7]
  NF-kB SEAP reporter activity: 0.76
[2]; [8]
  NF-kB SEAP reporter activity: 0.777

## CO[C@H](c1c(NC(=O)Nc2cnc(-n3nccn3)c(Cl)c2)cnc2cc(Cl)nn12)[C@@H](C)OC
[1]; [4]
  NF-kB SEAP reporter activity: 0.986
[1]; [5]
  NF-kB SEAP reporter activity: 0.994

## CC(C)=CCc1cc(-c2coc3cc(O)ccc3c2=O)ccc1O (library stock concentration (final ~1000-fold dilution): 10 mM)
[2]; agonist: LPS (TLR4) 0.1 ug/mL
  NF-kB SEAP reporter activity: 1.59
[2]; [6]
  NF-kB SEAP reporter activity: 1.2
[2]; [7]
  NF-kB SEAP reporter activity: 0.94
[2]; [8]
  NF-kB SEAP reporter activity: 1.64

## CC(C)=CCc1cc(-c2coc3cc(O)ccc3c2=O)ccc1O
[1]; [4]
  NF-kB SEAP reporter activity: 1.15
[1]; [5]
  NF-kB SEAP reporter activity: 1.23

## COc1cc2ccc(=O)oc2c(OC)c1O
[1]; library stock concentration (final ~1000-fold dilution): .1 mM, cytotoxicity flag (confluency mask): not cytotoxic, agonist: Imiquimod (TLR7) […]
  NF-kB SEAP reporter activity: 1.02
[1]; library stock concentration (final ~1000-fold dilution): .1 mM, cytotoxicity flag (confluency mask): not cytotoxic, agonist: MPLA (TLR4) […]
  NF-kB SEAP reporter activity: 0.485

## COc1cc2ccc(=O)oc2c(OC)c1O (library stock concentration (final ~1000-fold dilution): .1 mM)
[2]; agonist: LPS (TLR4) 0.1 ug/mL
  NF-kB SEAP reporter activity: 0.387
[2]; [6]
  NF-kB SEAP reporter activity: 1.09
[2]; [7]
  NF-kB SEAP reporter activity: 1.02
[2]; [8]
  NF-kB SEAP reporter activity: 0.896

## CN1C2CCCC1CC(NC(=O)c1nn(C)c3ccccc13)C2 (stereo unspecified)
[1]; [5]
  NF-kB SEAP reporter activity: 0.999

## CN1C2CCCC1CC(NC(=O)c1nn(C)c3ccccc13)C2 (stereo unspecified) (library stock concentration (final ~1000-fold dilution): 10 mM)
[2]; agonist: LPS (TLR4) 0.1 ug/mL
  NF-kB SEAP reporter activity: 0.938
[2]; [6]
  NF-kB SEAP reporter activity: 0.877
[2]; [7]
  NF-kB SEAP reporter activity: 0.899
[2]; [8]
  NF-kB SEAP reporter activity: 0.889

## CCCCCCCCc1ccc(CCC(N)(CO)CO)cc1.Cl (library stock concentration (final ~1000-fold dilution): 10 mM)
[3]; agonist: LPS (TLR4) 0.1 ug/mL
  NF-kB SEAP reporter activity: 0.682
[3]; [6]
  NF-kB SEAP reporter activity: 0.784
[3]; [7]
  NF-kB SEAP reporter activity: 0.272
[3]; [8]
  NF-kB SEAP reporter activity: 0.37

## CCCCCCCCc1ccc(CCC(N)(CO)CO)cc1.Cl
[1]; library stock concentration (final ~1000-fold dilution): 10 mM, cytotoxicity flag (confluency mask): cytotoxic (confluency <70% of control), agonist: MPLA (TLR4) […]
  NF-kB SEAP reporter activity: 1.84

## Cc1ccc(C(=O)c2cc(O)c(O)c([N+](=O)[O-])c2)cc1
[1]; [4]
  NF-kB SEAP reporter activity: 0.872
[1]; [5]
  NF-kB SEAP reporter activity: 1.11

## Cc1ccc(C(=O)c2cc(O)c(O)c([N+](=O)[O-])c2)cc1 (library stock concentration (final ~1000-fold dilution): 10 mM)
[2]; agonist: LPS (TLR4) 0.1 ug/mL
  NF-kB SEAP reporter activity: 1.17
[2]; [6]
  NF-kB SEAP reporter activity: 0.719
[2]; [7]
  NF-kB SEAP reporter activity: 0.842
[2]; [8]
  NF-kB SEAP reporter activity: 0.655

## O=C([O-])c1ccccc1O.[Na+] (library stock concentration (final ~1000-fold dilution): 10 mM)
[2]; agonist: LPS (TLR4) 0.1 ug/mL
  NF-kB SEAP reporter activity: 1.04 ± 0.14
[2]; [6]
  NF-kB SEAP reporter activity: 0.979 ± 0.11
[2]; [7]
  NF-kB SEAP reporter activity: 1.04 ± 0.067
[2]; [8]
  NF-kB SEAP reporter activity: 1.12 ± 0.055

## O=C([O-])c1ccccc1O.[Na+]
[1]; [4]
  NF-kB SEAP reporter activity: 0.997 ± 0.1
[1]; [5]
  NF-kB SEAP reporter activity: 1.02 ± 0.037
